Literature values in article PMC4680881 (Scientific Reports, 2015).

Conditions: cited from earlier work
For `COc1ccc(/C=C/c2cc(=O)c3cc(I)ccc3o2)cc1OC` [SC-(OMe)2, (E)-6-Iodo-2-(3,4-dimethoxystyryl) chromone], the “log P” value is listed as 2.14. In the case of `CNc1ccc(/C=C/c2cc(=O)c3cc(I)ccc3o2)cc1` [SC-NHMe, (E)-6-Iodo-2-(4-(methylamino)styryl)-chromone], the “log P” value is listed as 2.15. In the case of `COc1ccc(/C=C/c2cc(=O)c3cc(I)ccc3o2)cc1` [SC-OMe, (E)-6-Iodo-2-(4-methoxystyryl) chromone], the “log P” value is listed as 2.15.
